The list shows a part of the results. Sequences were assembled here from the parent chain. Inactive controls read about 0.05.
B1: TEV protease; numbered along this chain (parent)
chain: MGESLFKGPRDYNPISSSICHLTNESDGHTTSLYGIGFGPFIITNKHLFRRNNGTLVVQSLHGVFKVKDTTTLQQHLVDGRDMIIIRMPKDFPPFPQKLKFREPQREERICLVTTNFQTKSMSSMVSDTSCTFPSGDGIFWKHWIQTKDGQCGSPLVSTRDGFIVGIHSASNFTNTNNYFTSVPKNFMELLTNQEAQQWVSGWRLNADSVLWGGHKVFMVKPEEPFQPVKEATQL

Variants of: B1
Assay: raw area under fraction-flipped curve 0-4 h after induction (AUC4h, not background-subtracted), DNA-recorder readout of cleavage of the substrate (dimensionless); higher = more cleavage of the substrate by the protease variant
Details: temperature: 34 °C; time window: 0-4 h after rhamnose induction
Experimental: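 In vivo DNA recorder in E. coli TOP10(DE3) ΔrhaA at 34 °C. Each TEVp single-site mutant (parent TEVp 0) is paired with a single-site variant of the 7-mer TEVs (canonical ENLYFQ|S). The substrate sits between flexible linkers in a Bxb1-sfGFP-TEVs-SsrA fusion, so cleavage stabilises Bxb1 and speeds flipping of a recombination array, read by NGS. The value is the raw area under the fraction-flipped curve over 0-4 h after rhamnose induction (AUC4h), with ≥20 reads per time point. It is not background-subtracted; inactive controls average about 0.047.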
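Also: Bxb1 expression induced with 0.2% (w/v) L-rhamnose at OD600 near 0.5, cultures sampled hourly, flipped fraction per protease–substrate barcode pair counted by paired-end Illumina sequencing.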

## MGESLFKGPRDYNPISSSICHLTNESDGHTTSLYGIGFGPFIITNKHLFRRNNGTLVVQSLHGVFKVKDTTTLQQHLVDGRDMIIIRMPKDFPPFPQKLKFREPQREERICLVTCNFQTKSMSSMVSDTSCTFPSGDGIFWKHWIQTKDGQCGSPLVSTRDGFIVGIHSASNFTNTNNYFTSVPKNFMELLTNQEAQQWVSGWRLNADSVLWGGHKVFMVKPEEPFQPVKEATQL [T115C]
  area with substrate ENLYFAS: 0.0576
  area with substrate ENLYFCS: 0.0543
  area with substrate ENLYFDS: 0.0699
  area with substrate ENLYFES: 0.0519
  area with substrate ENLYFFS: 0.0811
  area with substrate ENLYFHS: 0.0623
  area with substrate ENLYFIS: 0.058
  area with substrate ENLYFKS: 0.0651
  area with substrate ENLYFLS: 0.0689
  area with substrate ENLYFMS: 0.067
  area with substrate ENLYFNS: 0.0769
  area with substrate ENLYFPS: 0.0621
  area with substrate ENLYFRS: 0.0591
  area with substrate ENLYFSS: 0.0635
  area with substrate ENLYFTS: 0.0534
  area with substrate ENLYFWS: 0.0634

## MGESLFKGPRDYNPISSSICHLTNESDGHTTSLYGIGFGPFIITNKHLFRRNNGTLVVQSLHGVFKVKDTTTLQQHLVDGRDMIIIRMPKDFPPFPQKLKFREPQREERICLLTTNFQTKSMSSMVSDTSCTFPSGDGIFWKHWIQTKDGQCGSPLVSTRDGFIVGIHSASNFTNTNNYFTSVPKNFMELLTNQEAQQWVSGWRLNADSVLWGGHKVFMVKPEEPFQPVKEATQL [V113L]
  area with substrate ENLYFAS: 0.0636
  area with substrate ENLYFCS: 0.0637
  area with substrate ENLYFDS: 0.0792
  area with substrate ENLYFES: 0.06
  area with substrate ENLYFFS: 0.0702
  area with substrate ENLYFGS: 0.0521
  area with substrate ENLYFHS: 0.0663
  area with substrate ENLYFIS: 0.0623
  area with substrate ENLYFKS: 0.0675
  area with substrate ENLYFLS: 0.0564
  area with substrate ENLYFMS: 0.0615
  area with substrate ENLYFNS: 0.0639
  area with substrate ENLYFPS: 0.0632
  area with substrate ENLYFSS: 0.066
  area with substrate ENLYFTS: 0.0731
  area with substrate ENLYFWS: 0.0557

## MGESLFKGPRDYNPISSSICHLTNESDGHTTSLYGIGFGPFIITNKHLFRRNNGTLVVQSLHGVFKVKDTTTLQQHLVDGRDMIIIRMPKDFPPFPQKLKFREPQREERICLNTTNFQTKSMSSMVSDTSCTFPSGDGIFWKHWIQTKDGQCGSPLVSTRDGFIVGIHSASNFTNTNNYFTSVPKNFMELLTNQEAQQWVSGWRLNADSVLWGGHKVFMVKPEEPFQPVKEATQL [V113N]
  area with substrate ENLYFAS: 0.0522
  area with substrate ENLYFCS: 0.0574
  area with substrate ENLYFDS: 0.042
  area with substrate ENLYFES: 0.0541
  area with substrate ENLYFFS: 0.0591
  area with substrate ENLYFHS: 0.0618
  area with substrate ENLYFIS: 0.0533
  area with substrate ENLYFKS: 0.0452
  area with substrate ENLYFMS: 0.0593
  area with substrate ENLYFNS: 0.0327
  area with substrate ENLYFPS: 0.0509
  area with substrate ENLYFRS: 0.0684
  area with substrate ENLYFSS: 0.0446
  area with substrate ENLYFTS: 0.0528
  area with substrate ENLYFVS: 0.0358
  area with substrate ENLYFWS: 0.0603
  area with substrate ENLYFYS: 0.0487

## MGESLFKGPRDYNPISSSICHLTNESDGHTTSLYGIGFGPFIITNKHLFRRNNGTLVVQSLHGVFKVKDTTTLQQHLVDGRDMIIIRMPKDFPPFPQKLKFREPQREERICLCTTNFQTKSMSSMVSDTSCTFPSGDGIFWKHWIQTKDGQCGSPLVSTRDGFIVGIHSASNFTNTNNYFTSVPKNFMELLTNQEAQQWVSGWRLNADSVLWGGHKVFMVKPEEPFQPVKEATQL [V113C]
  area with substrate ENLYFAS: 0.0618
  area with substrate ENLYFCS: 0.0549
  area with substrate ENLYFDS: 0.0506
  area with substrate ENLYFES: 0.0568
  area with substrate ENLYFFS: 0.0687
  area with substrate ENLYFHS: 0.0663
  area with substrate ENLYFIS: 0.0532
  area with substrate ENLYFLS: 0.0871
  area with substrate ENLYFMS: 0.0659
  area with substrate ENLYFPS: 0.0422
  area with substrate ENLYFTS: 0.0668
  area with substrate ENLYFVS: 0.0578
  area with substrate ENLYFWS: 0.0518
  area with substrate ENLYFYS: 0.0599

Reference: the supplement of paper PMC12217912
